# Measurements taken from PMC4336329 (PLoS ONE, 2015).
# The whole screen tested about 310,000 compounds, of which about 2,200 (0.71%) showed an effect of 50% or more. Effects have a minus sign here. The list shows a part of the results.
# Molecular target: human ether-à-go-go-related gene (hERG) potassium channel (human, UniProt Q12809)
# Assay: primary screen, population patch clamp on CHO cells stably expressing hERG
# Chain of human ether-à-go-go-related gene (hERG) potassium channel (Q12809 whole entry, looked up): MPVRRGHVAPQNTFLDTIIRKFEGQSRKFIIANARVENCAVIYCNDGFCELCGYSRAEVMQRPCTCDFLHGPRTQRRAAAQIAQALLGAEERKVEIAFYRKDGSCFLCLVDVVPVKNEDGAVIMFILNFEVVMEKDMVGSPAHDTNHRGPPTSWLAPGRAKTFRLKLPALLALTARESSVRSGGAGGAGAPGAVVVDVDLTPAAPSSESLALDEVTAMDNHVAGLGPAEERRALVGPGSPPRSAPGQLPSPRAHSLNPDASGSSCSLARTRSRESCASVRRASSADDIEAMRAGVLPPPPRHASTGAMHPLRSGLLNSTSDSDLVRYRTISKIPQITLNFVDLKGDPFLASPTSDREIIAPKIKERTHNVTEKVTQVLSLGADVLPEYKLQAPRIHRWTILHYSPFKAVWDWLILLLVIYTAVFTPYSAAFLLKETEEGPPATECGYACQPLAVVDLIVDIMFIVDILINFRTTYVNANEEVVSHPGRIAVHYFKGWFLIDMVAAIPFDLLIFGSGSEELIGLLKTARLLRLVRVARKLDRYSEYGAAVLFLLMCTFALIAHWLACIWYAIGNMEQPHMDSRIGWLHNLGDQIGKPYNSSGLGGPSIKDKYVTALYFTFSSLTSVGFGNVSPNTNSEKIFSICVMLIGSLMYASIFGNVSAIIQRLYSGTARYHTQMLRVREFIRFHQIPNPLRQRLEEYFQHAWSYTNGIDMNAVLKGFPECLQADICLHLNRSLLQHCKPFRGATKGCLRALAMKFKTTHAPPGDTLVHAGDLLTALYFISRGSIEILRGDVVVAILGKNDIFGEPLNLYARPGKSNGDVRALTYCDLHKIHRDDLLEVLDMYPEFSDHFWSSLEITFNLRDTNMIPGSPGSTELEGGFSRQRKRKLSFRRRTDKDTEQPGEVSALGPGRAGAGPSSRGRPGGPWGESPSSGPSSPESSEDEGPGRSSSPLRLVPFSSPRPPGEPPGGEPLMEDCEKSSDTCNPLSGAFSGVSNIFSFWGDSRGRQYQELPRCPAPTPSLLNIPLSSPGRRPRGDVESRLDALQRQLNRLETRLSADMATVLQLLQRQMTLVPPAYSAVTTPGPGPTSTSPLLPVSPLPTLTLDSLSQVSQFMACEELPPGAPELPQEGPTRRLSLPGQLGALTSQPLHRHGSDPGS
row,Structure (SMILES),"hERG current change (%, negative = inhibition) at 1uM [%]"
1,COc1cccc(/C(O)=C2/C(=O)C(=O)N(CCN3CCOCC3)C2c2cccs2)c1 (stereo not shown),10.7
2,O=C(CCN1C(=O)COc2ccccc21)NCCN1CCN(c2cccc(Cl)c2)CC1,-14.6
3,Cc1cc(C)cc(N2CC(c3nc4ccccc4n3C)CC2=O)c1 (stereo not shown),2.4
4,COc1ccc(F)cc1C1=CC(=O)C[C@H](c2ccc3c(c2)OCO3)C1,11.3
5,CCC(=O)OC1CSc2nc3ccccc3n2C1 (stereo not shown),3.58
6,COc1ccc(NC(=O)c2ccc(NC(=O)c3cccs3)cc2)cc1,0.302
7,CC(=O)Nc1ccc(NC(=O)C(C)OC(=O)CCC(=O)c2ccc(F)cc2)cc1 (stereo not shown),8.41
8,CCn1c(SCC(=O)c2c(N)n(C3CC3)c(=O)[nH]c2=O)nc2cc(S(N)(=O)=O)ccc21,15
9,N#C/C(=C/c1ccccc1)c1nn(CCO)c(N)c1C#N,9.65
10,Cc1cccc(-c2noc(Cc3ccccc3)n2)c1,8.12
11,CCN(CC)S(=O)(=O)c1cccc(C(=O)Nc2nncs2)c1,7.46
12,CC(=O)N1CCc2cc(S(=O)(=O)NC(Cc3ccccc3)C(=O)NC3CCCCCC3)ccc21 (stereo not shown),0.252
13,COc1ccc2oc(=N)c(C(=O)Nc3ccccc3)cc2c1,-3.79
14,COC(=O)c1c(C(=O)OC)c(-c2ccc(Br)cc2)n2c1CS(=O)C2 (stereo not shown),12.5
15,Cc1ccc(C)c(N(CC(=O)NCc2ccccc2)C(=O)c2csnn2)c1,8.06
16,O=C(O)CNC(=O)C(c1ccccc1)c1ccccc1,11.2
17,O=C(CCNC(=O)Cn1ccc2ccccc2c1=O)NCC1CCCC1c1ccccc1 (stereo not shown),1.85
18,CCN(CC(=O)N1CCN(Cc2ccccc2)CC1)S(=O)(=O)c1ccccc1,15.9
19,C=CCN1C(=O)C2C(C(=O)NC3CCCCC3)C3C=CC2(O3)C1C(=O)NC1CCCC1 (stereo not shown),7.07
20,CC(C)C[C@@H]1NC(=O)[C@H](C(C)C)NC(=O)c2cc([N+](=O)[O-])cc(I)c2NCC[C@@H](C(N)=O)NC1=O,-3.05
21,CCC(C)N(C(=O)COC(=O)c1cc([N+](=O)[O-])ccc1N)C1CCS(=O)(=O)C1 (stereo not shown),15.1
22,O=S(=O)(/N=C/N1CCOCC1)c1ccc(Cl)cc1,6.69

row,Structure (SMILES),"hERG current change (%, negative = inhibition) at 1uM [%]"
1,O=C(c1ccc(OCC2CCCO2)cc1)N1CCc2ccccc2C1 (stereo not shown),11
2,O=C(O)CCC(=O)Nc1ccc(OCC(=O)O)cc1,12.5
3,Cc1ccccc1-n1c(SCC(=O)Nc2ccccc2Cl)nc2n[nH]c(C)c2c1=N,10.3
4,COc1ccc(F)cc1S(=O)(=O)Nc1ccc(C)cc1,10.7
5,Brc1ccc(-c2cn3ccccc3n2)cc1,0.36
6,Cc1ccc(NS(=O)(=O)c2cc3c4c(c2)CC(=O)N4CCC3)cc1C,5.67
7,CN1c2ccccc2N(C)C1(C)c1cccc2ccccc12,8.07
8,N#Cc1cc(Oc2ccc3ccccc3c2)c(-n2nnc3ccccc32)cc1C#N,11.7
9,COc1ccc(NC(=O)c2ccc(Br)o2)c([N+](=O)[O-])c1,9.83
10,Cc1ccc(C)c(CSc2ccc3nnc(-c4ccccn4)n3n2)c1,-54.3
11,COc1cc(CC(=O)Nc2ccc3c(c2)CCC3)cc(OC)c1OC,5.91
12,Cc1onc(-c2ccccc2Cl)c1C(=O)NCCn1ccc2ccccc21,-12.2
13,Cc1cccc(N2CCN(C(=O)C(C)C)CC2)c1C,0.865
14,COc1cc(C(=O)/C=C/c2cccnc2)c([N+](=O)[O-])cc1OC,11.2
15,O=C(Nc1ccc(OC(F)F)cc1)c1cc(S(=O)(=O)N2CCCCC2)ccc1N1CCOCC1,-7.89
16,COc1cc(-c2nc(Cc3c(F)cccc3Cl)no2)cc(OC)c1OC,6.29
17,O=c1cc(-c2ccccc2)[nH]c2cc(Cl)ccc12,11.3
18,C/C(CCC(C)C)=N\Nc1cc(C)c2ccccc2n1,5.1
19,Nc1oc2ccccc2c1C(=O)Cc1ccccc1O[C@@H]1O[C@H](CO)[C@@H](O)[C@H](O)[C@H]1O,12.8
20,COc1ccnc(CSC(N)=Nc2ccccc2OC)c1.Cl,-8.43
21,COc1ccc(/C=C(/C(=O)NCc2ccccc2)c2ccccc2)cc1,-5.18
22,CC1(C)CC(NC(=O)c2ccncc2)CC(C)(C)N1O.Cl,12.4

row,Structure (SMILES),"hERG current change (%, negative = inhibition) at 1uM [%]"
1,C=C1CCC2C(C)(C)[C@@H](O)CC[C@@]2(C)[C@@H]1COc1ccc2ccc(=O)oc2c1 (stereo partly shown),19.7
2,CCn1nnnc1SCC(=O)Nc1nc(C)c(C)s1,7.96
3,O=C(NNC(=O)C1CCC1)c1ccccc1F,12.3
4,O=C(NCc1csc(-c2ccccc2)n1)c1cc(F)cc2c1OCOC2,9.52
5,N#CCCn1cc(/C=N/O)c(-c2ccc(-c3ccccc3)cc2)n1,9.98
6,C/C(=N\Nc1ccccc1)c1c(O)n(-c2ccccc2)c(=O)[nH]c1=O,9.21
7,COc1ccc2c(c1OC)C(=O)OC2C/C(=N\NC(N)=O)c1ccccc1 (stereo not shown),18.9
8,Cc1ccc(Cn2c(CN3CC(C)OC(C)C3)nc3c2c(=O)[nH]c(=O)n3C)cc1 (stereo not shown),-3.88
9,Cc1cc(S(=O)(=O)N2CCOCC2)c(C)s1,14.9
10,CCOC(=O)c1c(-n2c(C)cc(/C=C3/C(=O)NC(=O)N(CC)C3=O)c2C)sc2c1CCCC2,4.99
11,COc1ccc(Cl)cc1NC(=O)CCS(=O)(=O)c1cc2c(cc1C)NC(=O)CO2,1.74
12,CNC(=O)C(=O)Nc1ccc(C)cc1C,5.63
13,COc1ccc(-c2csc3nc(C(C)C)oc(=O)c23)cc1OC,7.59
14,Cc1cc(C)c[n+](-c2[nH]c(=O)sc2/C=N/N=C(\N)[S-])c1,17.5
15,COc1cccc(OC)c1C(=O)Nc1ccc(CN2CCCCC2)cc1,10.2
16,CCO[C@H]1OC(C(=O)O)=C[C@@H](c2csc3ccccc23)[C@@H]1CCCO,18.6
17,CC1(C)CC(=O)C(C(=O)c2ccccc2)C(=O)C1Cl (stereo not shown),4.38
18,O=C(NC(=O)c1ccccc1O)c1ccc2c(c1)CCO2,12.4
19,O=C(NCCO)Nc1ccc2nc(-c3ccco3)c(-c3ccco3)nc2c1,4.56
20,Cc1ccc(C2c3c(oc4ccc(Cl)cc4c3=O)C(=O)N2CCCN2CCOCC2)o1 (stereo not shown),3.82
21,Cc1cc2c3nonc3ccc2n1-c1ccccc1,8.08
22,Cc1cc2cc(CNC(=O)Cc3ccc([N+](=O)[O-])cc3)ccc2n1C,5.3

row,Structure (SMILES),"hERG current change (%, negative = inhibition) at 1uM [%]"
1,Cc1nc(-n2[nH]c3c(c2=O)CCCC3)[nH]c(=O)c1Cc1ccccc1,11.7
2,Cc1cc(C)cc(NC(=O)c2ccc3nc[nH]c3c2)c1,14.2
3,COc1cc(NC(=O)CSc2nc3c(c(=O)n(C)c(=O)n3C)n2C)cc(OC)c1,3.01
4,O=c1oc2cc(Br)ccc2n1CSC1=NCCS1,10.3
5,Cc1ccsc1C(=O)C1CCCN(Cc2cccc(-n3cccn3)c2)C1 (stereo not shown),-10.8
6,Cc1ccc(S(=O)(=O)N(C)CC(=O)N2CCCCCC2)cc1,16.8
7,COc1ccc(C(=O)Nc2nnc(S(=O)(=O)N3CCOCC3)s2)cc1,-10.9
8,CCC1(C)N=C(N)Nc2nc3cc(C)c(C)cc3n21 (stereo not shown),6.79
9,CCOc1ccccc1-n1c(SCC(=O)N(CC)CC)nnc1-c1ccccn1,6.17
10,CCOc1cc(OCC)cc(C(=O)NC(=S)Nc2cccc(C(F)(F)F)c2)c1,10.7
11,O=C(c1ccccc1F)N1CCN(S(=O)(=O)c2ccc(S(=O)(=O)N3CCCCC3)cc2)CC1,8.67
12,Nc1nc(CSC(=S)N2CCN(c3ccccc3)CC2)nc(Nc2ccc(F)cc2)n1,-2.02
13,CCn1c(SCC(=O)NC2=NCCS2)nnc1C(C)NC(=O)c1ccc(Cl)cc1 (stereo not shown),15
14,O=C(Cc1ccsc1)Nc1ccc(S(=O)(=O)C(F)F)cc1,11.7
15,COc1ccc(/C=N/NC(=O)c2c(C)nc3ccc(Br)cn23)cc1OC,4.44
16,CSc1ncccc1C(=O)N1CCCC(CCC(=O)NCc2ccccc2F)C1 (stereo not shown),4.53
17,Cc1cccc2c1NC1(CCCC1)CC2C.Cl (stereo not shown),15.4
18,Cl.O=C(CSc1ncc(-c2ccc(F)cc2)[nH]1)N1CCCCC1,0.257
19,Cc1ccc(OCCCSc2ncccn2)cc1C,6.21
20,CCOc1ccccc1NC(=O)Cn1nnc(C(=O)NCc2ccc3c(c2)OCO3)c1N,6.91
21,CCC(OCC(O)CN1CCCCC1)c1ccccc1.Cl (stereo not shown),21.8
22,CC(C)Sc1nc2sc(-c3ccccc3)cc2c(=O)n1N,10.1
